These results are taken from the supplement of paper PMC9588766.

Structures can show the parent of a compound that is named as a salt. In all, about 1,900 compounds were measured (“cell viability of compound + 1 nM pemigatinib relative to pemigatinib-only (DMSO) wells”: median about 0.95, lowest 2% from about 0.22 on). The list shows a part of the results.

The test system of the test is PDC-DUC18828. Description: cell viability of compound + 1 nM pemigatinib relative to pemigatinib-only (DMSO) wells (fraction); PDC-DUC18828 is a patient-derived cholangiocarcinoma cell line; higher = less growth inhibition. Conditions: first compound 1 µM; pemigatinib concentration 1 nM; 72 h. Here is the method:
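Selleck Bioactive library screen in the patient-derived FGFR2 fusion-positive ICC cell line PDC-DUC18828 (500 cells/well). Each compound was tested at 1 uM with 1 nM pemigatinib, in triplicate, for 72 h. Viability was read by CellTiter-Glo and normalised to plate DMSO controls. Value is the paper's averaged normalised viability.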
As for `CCCCNC(=O)NS(=O)(=O)c1ccc(C)cc1` [Tolbutamide] + CCN1C(=O)N(c2c(F)c(OC)cc(OC)c2F)Cc2cnc3[nH]c(CN4CCOCC4)cc3c21 [pemigatinib], the cell viability is 0.926.
In the case of `CN(C)Cc1cccc(N/C(=C2\C(=O)Nc3cc(C(N)=O)ccc32)c2ccccc2)c1` + CCN1C(=O)N(c2c(F)c(OC)cc(OC)c2F)Cc2cnc3[nH]c(CN4CCOCC4)cc3c21 [pemigatinib], the cell viability came out at 1.
The same measure for `CCN1CC(CCN2CCOCC2)C(c2ccccc2)(c2ccccc2)C1=O` (configuration not stated) [Doxapram HCl] + CCN1C(=O)N(c2c(F)c(OC)cc(OC)c2F)Cc2cnc3[nH]c(CN4CCOCC4)cc3c21 [pemigatinib]: 0.985; for `CCC(=O)O[C@]1(C(=O)CCl)[C@@H](C)C[C@H]2[C@@H]3C[C@H](F)C4=CC(=O)C=C[C@]4(C)[C@@]3(F)[C@@H](O)C[C@@]21C` [Halobetasol Propionate] + CCN1C(=O)N(c2c(F)c(OC)cc(OC)c2F)Cc2cnc3[nH]c(CN4CCOCC4)cc3c21 [pemigatinib]: 0.784; for `C[C@@H](CN1CC(=O)NC(=O)C1)N1CC(=O)NC(=O)C1` [Dexrazoxane HCl (ICRF-187, ADR-529)] + CCN1C(=O)N(c2c(F)c(OC)cc(OC)c2F)Cc2cnc3[nH]c(CN4CCOCC4)cc3c21 [pemigatinib]: 1.01.
The same measure for `Cc1nc2n(c(=O)c1CCN1CCC(c3noc4cc(F)ccc34)CC1)CCCC2` [Risperidone] + CCN1C(=O)N(c2c(F)c(OC)cc(OC)c2F)Cc2cnc3[nH]c(CN4CCOCC4)cc3c21 [pemigatinib]: 1.07; for `CNCCC(Oc1ccc(C(F)(F)F)cc1)c1ccccc1` (configuration not stated) [Fluoxetine HCl] + CCN1C(=O)N(c2c(F)c(OC)cc(OC)c2F)Cc2cnc3[nH]c(CN4CCOCC4)cc3c21 [pemigatinib]: 0.981.
Then `Cn1nccc1Nc1nccc(-c2ccn([C@H](CO)c3ccc(Cl)c(F)c3)c(=O)c2)n1` + CCN1C(=O)N(c2c(F)c(OC)cc(OC)c2F)Cc2cnc3[nH]c(CN4CCOCC4)cc3c21 [pemigatinib], with 0.886.
Regarding `CC(=O)OCC(=O)[C@@]12N=C(C)O[C@@H]1C[C@H]1[C@@H]3CCC4=CC(=O)C=C[C@]4(C)[C@H]3[C@@H](O)C[C@@]12C` [Deflazacort] + CCN1C(=O)N(c2c(F)c(OC)cc(OC)c2F)Cc2cnc3[nH]c(CN4CCOCC4)cc3c21 [pemigatinib], the cell viability is 0.896.
The same measure for `OCc1cc(C(O)CNCCCCCCOCCCCc2ccccc2)ccc1O` (configuration not stated) [Salmeterol Xinafoate] + CCN1C(=O)N(c2c(F)c(OC)cc(OC)c2F)Cc2cnc3[nH]c(CN4CCOCC4)cc3c21 [pemigatinib]: 0.943; for `Nc1ncnc2c1c(-c1cnc3[nH]ccc3c1)nn2C1CCCC1` + CCN1C(=O)N(c2c(F)c(OC)cc(OC)c2F)Cc2cnc3[nH]c(CN4CCOCC4)cc3c21 [pemigatinib]: 0.331; for `Cc1cc(C(O)=C2C(=O)C(=O)N(CCCN3CCOCC3)C2c2ccncc2)ccc1OCc1ccccc1` (configuration not stated) + CCN1C(=O)N(c2c(F)c(OC)cc(OC)c2F)Cc2cnc3[nH]c(CN4CCOCC4)cc3c21 [pemigatinib]: 1.
Then `COc1cc(Nc2nc3ccccc3nc2NS(=O)(=O)c2ccc(NC(=O)c3ccc(C)c(OC)c3)cc2)cc(OC)c1` + CCN1C(=O)N(c2c(F)c(OC)cc(OC)c2F)Cc2cnc3[nH]c(CN4CCOCC4)cc3c21 [pemigatinib], with 1.01.
The same measure for `CCC1=C(C)CN(C(=O)NCCc2ccc(S(=O)(=O)NC(=O)N[C@H]3CC[C@H](C)CC3)cc2)C1=O` [Glimepiride] + CCN1C(=O)N(c2c(F)c(OC)cc(OC)c2F)Cc2cnc3[nH]c(CN4CCOCC4)cc3c21 [pemigatinib]: 1.03; for `CCNC(=O)C#Cc1ccc2c(C(=Nc3ccc(CN(C)C)cc3)c3ccccc3)c(O)[nH]c2c1` + CCN1C(=O)N(c2c(F)c(OC)cc(OC)c2F)Cc2cnc3[nH]c(CN4CCOCC4)cc3c21 [pemigatinib]: 0.38.
Turning to `CCCCOc1cc(C(=O)NCCN(CC)CC)c2ccccc2n1` [Dibucaine HCl] + CCN1C(=O)N(c2c(F)c(OC)cc(OC)c2F)Cc2cnc3[nH]c(CN4CCOCC4)cc3c21 [pemigatinib], the cell viability worked out at 0.925.
The same measure for `CCOC(=O)c1ccc(NC(=O)O[C@H]2[C@H](OC(=O)Nc3ccc4c(c3)OCO4)[C@@H](OC(=O)Nc3ccc4c(c3)OCO4)[C@@H](OC)O[C@@H]2CO)cc1` + CCN1C(=O)N(c2c(F)c(OC)cc(OC)c2F)Cc2cnc3[nH]c(CN4CCOCC4)cc3c21 [pemigatinib]: 0.916; for `O=C1CCc2cc(OCCCCc3nnnn3C3CCCCC3)ccc2N1` [Cilostazol] + CCN1C(=O)N(c2c(F)c(OC)cc(OC)c2F)Cc2cnc3[nH]c(CN4CCOCC4)cc3c21 [pemigatinib]: 1.04.
On to `N#C[C@@H]1C[C@@H]2C[C@@H]2N1C(=O)[C@@H](N)C12CC3CC(CC(O)(C3)C1)C2` [Saxagliptin] + CCN1C(=O)N(c2c(F)c(OC)cc(OC)c2F)Cc2cnc3[nH]c(CN4CCOCC4)cc3c21 [pemigatinib], for which the cell viability worked out at 1.02.
The same measure for `CCS(=O)(=O)CCn1c([N+](=O)[O-])cnc1C` [Tinidazole] + CCN1C(=O)N(c2c(F)c(OC)cc(OC)c2F)Cc2cnc3[nH]c(CN4CCOCC4)cc3c21 [pemigatinib]: 0.945; for `COC(=O)[C@@H]1[C@H]2C[C@H]3c4[nH]c5ccccc5c4CCN3C[C@@H]2CC[C@@H]1O` [Yohimbine HCl] + CCN1C(=O)N(c2c(F)c(OC)cc(OC)c2F)Cc2cnc3[nH]c(CN4CCOCC4)cc3c21 [pemigatinib]: 0.891.
Then `Oc1c2ccccc2c2c3c(cccc13)N=N2` + CCN1C(=O)N(c2c(F)c(OC)cc(OC)c2F)Cc2cnc3[nH]c(CN4CCOCC4)cc3c21 [pemigatinib], with 0.963.
For the molecule `CCC1C/C(=C\c2cccnc2)C(=O)/C(=C/c2cccnc2)C1` (configuration not stated) + CCN1C(=O)N(c2c(F)c(OC)cc(OC)c2F)Cc2cnc3[nH]c(CN4CCOCC4)cc3c21 [pemigatinib], the cell viability was 0.65.
The same measure for `O=C(/C=C\n1cnc(-c2cc(C(F)(F)F)cc(C(F)(F)F)c2)n1)NNc1cnccn1` + CCN1C(=O)N(c2c(F)c(OC)cc(OC)c2F)Cc2cnc3[nH]c(CN4CCOCC4)cc3c21 [pemigatinib]: 0.536.
Then `CN(C)Cc1ccc(-c2nc3cccc4c3n2CCNC4=O)cc1` + CCN1C(=O)N(c2c(F)c(OC)cc(OC)c2F)Cc2cnc3[nH]c(CN4CCOCC4)cc3c21 [pemigatinib], with 1.06.
Then `Cc1[nH]c(/C=C2\C(=O)Nc3ccc(S(=O)(=O)N(C)c4cccc(Cl)c4)cc32)c(C)c1C(=O)N1CCN(C)CC1` + CCN1C(=O)N(c2c(F)c(OC)cc(OC)c2F)Cc2cnc3[nH]c(CN4CCOCC4)cc3c21 [pemigatinib], with 0.919; and `CC(C)C[C@H](NC(=O)[C@H]1O[C@@H]1C(=O)O)C(=O)NCCCCN=C(N)N` + CCN1C(=O)N(c2c(F)c(OC)cc(OC)c2F)Cc2cnc3[nH]c(CN4CCOCC4)cc3c21 [pemigatinib], with 0.994; and `Cc1nc(NC(=O)N2CCC[C@H]2C(N)=O)sc1-c1ccnc(C(C)(C)C(F)(F)F)c1` + CCN1C(=O)N(c2c(F)c(OC)cc(OC)c2F)Cc2cnc3[nH]c(CN4CCOCC4)cc3c21 [pemigatinib], with 0.802.
With `CC(C)NCC(O)COc1cccc2ccccc12` (configuration not stated) [Propranolol HCl] + CCN1C(=O)N(c2c(F)c(OC)cc(OC)c2F)Cc2cnc3[nH]c(CN4CCOCC4)cc3c21 [pemigatinib], the cell viability is 0.906.
Then `CC(N)C12CC3CC(CC(C3)C1)C2` (configuration not stated) [Rimantadine] + CCN1C(=O)N(c2c(F)c(OC)cc(OC)c2F)Cc2cnc3[nH]c(CN4CCOCC4)cc3c21 [pemigatinib], with 1.
Then `CCOC(=O)c1c(C)n(C)c2ccc(O)cc12` [Mecarbinate] + CCN1C(=O)N(c2c(F)c(OC)cc(OC)c2F)Cc2cnc3[nH]c(CN4CCOCC4)cc3c21 [pemigatinib], with 1.06.
Then `COc1ccc(C[C@@H]2c3cc(OC)c(OC)cc3CC[N@+]2(C)CCC(=O)OCCCCCOC(=O)CC[N@@+]2(C)CCc3cc(OC)c(OC)cc3[C@H]2Cc2ccc(OC)c(OC)c2)cc1OC` [Cisatracurium Besylate] + CCN1C(=O)N(c2c(F)c(OC)cc(OC)c2F)Cc2cnc3[nH]c(CN4CCOCC4)cc3c21 [pemigatinib], with 1; and `Fc1cc(-c2cccc3ncc(-c4cnn(C5CCNCC5)c4)nc23)cc(F)c1CN1CCOCC1` + CCN1C(=O)N(c2c(F)c(OC)cc(OC)c2F)Cc2cnc3[nH]c(CN4CCOCC4)cc3c21 [pemigatinib], with 0.992.
On to `CN(CCOc1ccc(CC2SC(=O)NC2=O)cc1)c1ccccn1` (configuration not stated) [Rosiglitazone HCl] + CCN1C(=O)N(c2c(F)c(OC)cc(OC)c2F)Cc2cnc3[nH]c(CN4CCOCC4)cc3c21 [pemigatinib], for which the cell viability was found to be 1.05.
Then `CN(CCOc1ccc(CC2SC(=O)NC2=O)cc1)c1ccccn1` (configuration not stated) [Rosiglitazone] + CCN1C(=O)N(c2c(F)c(OC)cc(OC)c2F)Cc2cnc3[nH]c(CN4CCOCC4)cc3c21 [pemigatinib], with 0.921; and `CN(CCOc1ccc(CC2SC(=O)NC2=O)cc1)c1ccccn1` (configuration not stated) [Rosiglitazone maleate] + CCN1C(=O)N(c2c(F)c(OC)cc(OC)c2F)Cc2cnc3[nH]c(CN4CCOCC4)cc3c21 [pemigatinib], with 0.976; and `NCc1c[nH]c(=S)n1[C@@H]1CCc2c(F)cc(F)cc2C1` [(R)-Nepicastat HCl] + CCN1C(=O)N(c2c(F)c(OC)cc(OC)c2F)Cc2cnc3[nH]c(CN4CCOCC4)cc3c21 [pemigatinib], with 0.905.
